Assay results reported in the supplement of paper PMC3334620.
In all, about 33,000 sequences were measured (“E-score (-0.5 to 0.5)”: median about -0.041, highest 2% from about 0.37 on). This is one part of the list.

molecular target: T1, Ecm22 (UniProt Q05958); assay: PBM E-score (8-mer binding enrichment) (E-score (-0.5 to 0.5)); higher = stronger / more preferred TF binding; most listed sequences are background and not binding sites; settings: protein concentration: 200 nM; construct: GST-full length
T1 sequence: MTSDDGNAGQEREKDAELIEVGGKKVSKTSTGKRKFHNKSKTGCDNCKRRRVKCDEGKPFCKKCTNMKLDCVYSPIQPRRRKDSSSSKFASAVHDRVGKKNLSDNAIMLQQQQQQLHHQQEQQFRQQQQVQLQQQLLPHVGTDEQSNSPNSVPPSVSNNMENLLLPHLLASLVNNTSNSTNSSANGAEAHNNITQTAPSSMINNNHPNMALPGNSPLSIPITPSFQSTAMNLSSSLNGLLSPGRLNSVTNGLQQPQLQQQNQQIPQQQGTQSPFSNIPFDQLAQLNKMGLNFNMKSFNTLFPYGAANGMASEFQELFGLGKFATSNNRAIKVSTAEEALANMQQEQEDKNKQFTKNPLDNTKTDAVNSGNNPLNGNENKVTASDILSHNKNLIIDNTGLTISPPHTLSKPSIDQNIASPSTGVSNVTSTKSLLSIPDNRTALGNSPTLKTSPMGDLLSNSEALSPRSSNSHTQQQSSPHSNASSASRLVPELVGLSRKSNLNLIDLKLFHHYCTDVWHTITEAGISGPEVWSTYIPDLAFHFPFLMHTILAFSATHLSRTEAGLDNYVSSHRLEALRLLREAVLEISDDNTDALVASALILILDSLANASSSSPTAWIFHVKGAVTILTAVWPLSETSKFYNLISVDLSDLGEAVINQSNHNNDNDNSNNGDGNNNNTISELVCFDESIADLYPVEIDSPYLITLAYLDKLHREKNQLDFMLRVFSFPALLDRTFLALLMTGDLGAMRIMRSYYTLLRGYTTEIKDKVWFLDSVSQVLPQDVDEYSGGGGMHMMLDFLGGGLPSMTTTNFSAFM
Method: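 Universal 'all 10-mer' protein binding microarrays (Agilent AMADID 015681) probed with GST-tagged S. cerevisiae TFs (full-length or DBD) made by in vitro transcription/translation (PURExpress), about 100-200 nM. Bound TF was detected with fluorescent anti-GST. Each ungapped 8-mer (which stands for itself and its reverse complement) is scored by the PBM enrichment score (E-score), a modified Wilcoxon-Mann-Whitney statistic from -0.5 to +0.5, computed with the Universal PBM Analysis Suite. Scale: above 0.35 generally sequence-specific binding.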

| Sequence | PBM E-score |
| --- | --- |
| AAGACTAG | -0.209 |
| GTCTTGAA | 0.0447 |
| CTTCAGCA | -0.0761 |
| AAGCCCGT | 0.138 |
| TAAAAACA | 0.00419 |
| GCACAGCC | -0.0877 |
| ACCCGATG | 0.059 |
| ACACCAAA | 0.0554 |
| GCACGTGC | -0.0189 |
| GCTGGAAC | 0.0629 |
| CGGATTCC | 0.102 |
| AGGTAACC | 0.11 |
| CAGAGGTC | -0.235 |
| GAGGGCGA | -0.28 |
| CTGATTCC | -0.298 |
| AAGCACGA | 0.104 |
| CACGCCAC | -0.186 |
| CGTCACGC | 0.0511 |
| AAAACAAA | 0.09 |
| GCATTTAC | -0.0379 |
| AATAGTTG | -0.116 |
| CCCGATCC | -0.106 |
| AGTTGCCC | -0.165 |
| AGCCCACC | -0.23 |
| GGGAAAAA | -0.0103 |

| Sequence | PBM E-score |
| --- | --- |
| ACATTGAT | 0.0861 |
| CGAGGAGA | 0.0825 |
| ATCTGTGC | -0.189 |
| ACAGCGCG | -0.00963 |
| AAGGCAAG | -0.235 |
| AGGAAGTC | -0.32 |
| AAGTCAGT | -0.0263 |
| AGTAGATA | 0.152 |
| GCCCGACC | -0.268 |
| AGTAATGA | -0.0982 |
| CGCGCCTC | 0.00638 |
| AAATGGCG | -0.0122 |
| CTGGATCA | -0.195 |
| CCTACGTA | 0.218 |
| CGAATTCA | 0.122 |
| TAGAACTA | -0.0234 |
| CGGCAATA | 0.121 |
| AGCCAGGC | -0.0189 |
| ATGAGGCG | -0.186 |
| ATCGGTTG | 0.188 |
| CTGGGGGC | -0.144 |
| ACGATAGT | 0.278 |
| TGATCACA | -0.0891 |
| GGAGTTCA | -0.124 |
| AGCAATGA | -0.187 |

| Sequence | PBM E-score |
| --- | --- |
| AGCAACGG | 0.203 |
| ACTCACGA | 0.125 |
| ATTTTTAG | -0.195 |
| CACAATCC | -0.0104 |
| AAGGAGCA | -0.186 |
| CTCGACAG | -0.066 |
| CTGGTGTC | 0.0518 |
| TCGTCGCA | 0.248 |
| AACGAACT | 0.354 |
| CCAAACTA | -0.0739 |
| CGGAAAGA | 0.0112 |
| GAGCTGCC | -0.109 |
| CCATAACC | 0.0085 |
| GACACTGC | -0.0959 |
| AGCCAAAT | 0.0246 |
| AAATGTCG | 0.0844 |
| CCGTCTGC | -0.142 |
| TATTACAA | 0.0408 |
| ATGCGGTA | -0.0155 |
| ACAACGAG | 0.288 |
| CTAGGGGA | -0.259 |
| CAGTCACA | -0.117 |
| AATCTCAT | 0.115 |
| CCCAGTCA | -0.273 |
| CCGGATCC | -0.0236 |

| Sequence | PBM E-score |
| --- | --- |
| ACCTGAAA | -0.0119 |
| AAGGGAGC | -0.119 |
| ACTTCCGG | -0.171 |
| CAGCGGTC | -0.191 |
| AAGCATGT | 0.0393 |
| GATAAAGC | -0.0561 |
| GTAGTCGA | 0.0287 |
| AGTACATG | -0.0514 |
| GGGTGTAC | 0.103 |
| ACCTGACA | -0.2 |
| ACTATGTG | -0.13 |
| ATTACTGG | -0.321 |
| GCACCTTA | -0.19 |
| CAGGATTC | -0.247 |
| AGCGCAGG | -0.208 |
| ACAGTCTC | -0.0978 |
| CGCGAAGC | 0.176 |
| CGATCACG | 0.121 |
| CGGCCACG | -0.283 |
| CAGCAGGC | -0.0464 |
| CGGACTAC | -0.0358 |
| ACTTAGAG | -0.335 |
| CTCGCAGA | 0.0487 |
| ATCCTACC | -0.186 |
| AGCCGGTG | -0.181 |

| Sequence | PBM E-score |
| --- | --- |
| GAGGGTAC | 0.152 |
| AGGTGATC | -0.0593 |
| ACGTCCAT | -0.191 |
| GGAATTGA | -0.0469 |
| ACTAATGA | 0.0403 |
| ATTGAAAC | -0.0355 |
| TCCGCTCA | -0.183 |
| CACTCGTA | 0.458 |
| GGGTTACA | 0.0372 |
| ACGTATTA | 0.235 |
| CGTCGAAC | -0.0061 |
| AGACAAAC | -0.0317 |
| CTAGTGGC | -0.276 |
| AACAGGTA | -0.0274 |
| AATAGGCC | -0.049 |
| CTACCGAG | 0.108 |
| ACATGCAG | -0.0552 |
| CTTTAATA | -0.0217 |
| CCTCGACC | -0.0654 |
| CTCAGCGA | 0.0368 |
| AAGCGTGA | -0.184 |
| CCGGATGA | -0.0739 |
| AGCAAGCC | -0.00874 |
| CAAACGAA | 0.438 |
| AGTGGTCA | 0.0348 |

| Sequence | PBM E-score |
| --- | --- |
| ATGAGGTC | -0.171 |
| AACAAACT | 0.0983 |
| CCACCCGG | -0.089 |
| ACTCAAAG | -0.07 |
| AGCTGGTC | -0.0365 |
| AACCTATA | -0.0644 |
| CGTCTAAG | -0.0866 |
| ACTGTCCA | -0.0513 |
| CCAAGACG | -0.191 |
| CTTGTCGA | 0.0352 |
| AGCCTAAG | -0.143 |
| ACCTGGAT | -0.0247 |
| TATCGATA | -0.147 |
| GGAGTAGA | 0.0357 |
| ACGCGTAT | 0.229 |
| ATCGACAG | 0.00794 |
| GTTGTCTA | -0.113 |
| CACACAGA | -0.117 |
| CCCACGTC | -0.124 |
| CTTGCACA | -0.151 |
| AATGAGGG | -0.155 |
| GACAAAGC | -0.0232 |
| CGCGGCAG | -0.104 |
| ACCTATCT | -0.228 |
| AGCCCGAC | -0.161 |

| Sequence | PBM E-score |
| --- | --- |
| ACTGTTTC | -0.11 |
| GACCCCTA | -0.246 |
| GATCGAGC | 0.0895 |
| CAGTTCCG | 0.14 |
| ATAAGCGC | 0.0439 |
| ATGAGTCC | -0.0916 |
| AAATTTGG | -0.159 |
| GCCAGTCC | -0.132 |
| AGAGCCAT | -0.0124 |
| AGACCCCG | -0.055 |
| CTGCACTC | -0.104 |
| ATATTGAG | -0.056 |
| AAGCTAAC | 0.0492 |
| CTCCCTGA | -0.307 |
| CACCAAAG | 0.0179 |
| CTACCTGA | -0.18 |
| AGACCCAT | -0.255 |
| ACGGAGAA | 0.164 |
| AATTGCCT | -0.126 |
| CCGTCTTC | -0.175 |
| GGTGCAGA | -0.272 |
| CGGGAGCA | 0.0293 |
